From article PMC4336329 (PLoS ONE, 2015) come the findings set out here.

Hit rate of the full screen: of about 310,000 compounds, about 14,000 (4.5%) showed an effect of 50% or more. Effects have a minus sign here. This is one part of the list.
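Note: peak tail current of the secondary pulse compared with the same well before compound.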

The target in the assay is human ether-à-go-go-related gene (hERG) potassium channel (human, UniProt Q12809). The experiment in a line: primary screen, population patch clamp on CHO cells stably expressing hERG.
Sequence of human ether-à-go-go-related gene (hERG) potassium channel (Q12809 whole entry, looked up): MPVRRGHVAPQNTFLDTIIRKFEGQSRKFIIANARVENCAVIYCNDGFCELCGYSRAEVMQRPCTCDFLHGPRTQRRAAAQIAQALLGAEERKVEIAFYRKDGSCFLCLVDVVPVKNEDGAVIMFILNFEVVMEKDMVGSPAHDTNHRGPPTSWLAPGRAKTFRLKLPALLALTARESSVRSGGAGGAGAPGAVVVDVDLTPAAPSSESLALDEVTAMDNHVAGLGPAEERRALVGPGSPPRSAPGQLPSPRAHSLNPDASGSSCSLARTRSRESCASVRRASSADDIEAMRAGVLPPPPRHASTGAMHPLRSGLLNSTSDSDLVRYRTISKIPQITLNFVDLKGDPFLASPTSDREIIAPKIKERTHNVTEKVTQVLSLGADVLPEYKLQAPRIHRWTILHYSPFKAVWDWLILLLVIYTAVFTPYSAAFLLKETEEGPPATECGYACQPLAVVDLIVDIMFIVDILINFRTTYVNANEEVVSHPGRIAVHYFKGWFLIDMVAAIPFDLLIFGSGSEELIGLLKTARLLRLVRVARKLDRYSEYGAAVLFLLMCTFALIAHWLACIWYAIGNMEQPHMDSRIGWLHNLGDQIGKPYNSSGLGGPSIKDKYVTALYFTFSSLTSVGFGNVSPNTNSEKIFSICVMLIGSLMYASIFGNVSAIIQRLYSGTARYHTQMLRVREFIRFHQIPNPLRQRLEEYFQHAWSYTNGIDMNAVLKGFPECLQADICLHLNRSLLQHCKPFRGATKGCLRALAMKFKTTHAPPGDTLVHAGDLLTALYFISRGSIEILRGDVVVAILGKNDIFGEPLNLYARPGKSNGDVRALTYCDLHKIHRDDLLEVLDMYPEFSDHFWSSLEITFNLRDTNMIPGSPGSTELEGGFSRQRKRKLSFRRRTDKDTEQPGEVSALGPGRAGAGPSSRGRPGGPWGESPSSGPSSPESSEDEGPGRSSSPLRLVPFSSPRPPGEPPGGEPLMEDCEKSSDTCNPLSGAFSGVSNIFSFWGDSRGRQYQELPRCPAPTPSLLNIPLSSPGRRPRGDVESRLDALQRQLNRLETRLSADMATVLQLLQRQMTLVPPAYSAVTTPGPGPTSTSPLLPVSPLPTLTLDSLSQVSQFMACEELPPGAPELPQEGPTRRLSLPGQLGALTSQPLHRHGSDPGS
Regarding `Cc1cc(C(=O)CSc2ncccn2)c(C)n1Cc1ccco1`, the “hERG current change (%, negative = inhibition) at 10uM” value is listed as 0.392%.

As to `COc1ccc(CCn2c(=N)c(S(=O)(=O)c3ccc(C)cc3)cc3c(=O)n4ccccc4nc32)cc1`, the “hERG current change (%, negative = inhibition) at 10uM” value came to 15.1%. With `Cc1oc2cc(Br)c(O)c(Br)c2c1-c1ccccc1` the figure was -13.5%.

As for `Cc1cc(NCCCO)n2nc(-c3cccs3)cc2n1`, the “hERG current change (%, negative = inhibition) at 10uM” value is -39.6%.

For the compound `COc1cccc(CN2CCC(n3nccc3NC(=O)CCCc3ccccc3)CC2)c1`, the “hERG current change (%, negative = inhibition) at 10uM” value was -71.3%. With `CN1C(=O)c2ccc(NC(=S)NC(=O)C(C)(C)C)cc2C1=O` the figure was -6.06%; with `COc1ccc(CCNC(=O)NC2CCCCC2)cc1OC`, 8.03%; with `CC(C(=O)O)c1ccc(N2Cc3ccccc3C2=O)cc1` (centres unmarked), 20%. With `COc1ccccc1NC(=S)N1CCC(c2nc3ccccc3o2)CC1` the figure was -9.31%; with `Cc1ccc(CN(CC(=O)NCCc2ccccc2)C(=O)c2csnn2)cc1`, -38.5%; with `COc1ccc(C(C(=O)NCc2ccccc2)N(C(=O)c2snc(C(N)=O)c2N)C2CCCC2)cc1` (centres unmarked), -22.6%. As to `CC(C)(Oc1ccc(Cl)cc1)C(=O)NCc1ccncc1`, the “hERG current change (%, negative = inhibition) at 10uM” value is listed as -1.22%. With `COCCNC(=O)C(c1cccnc1)N(Cc1ccccc1)C(=O)Cn1nnc2ccccc21` (centres unmarked) the figure was 11.9%.

In the case of `COc1cc(C(=O)Nc2cc(-c3ccccc3)[nH]n2)cc(OC)c1OC`, the “hERG current change (%, negative = inhibition) at 10uM” value is -22.8%.

As for `Cc1ccc(OCC(=O)N/N=C2/SCC(=O)N2Cc2ccccc2)cc1`, the “hERG current change (%, negative = inhibition) at 10uM” value was -37.8%. The value for `COc1ccc(OCCCC(=O)Nc2nc(-c3ccccn3)cs2)cc1` was 15.1%.

With `CCCCCc1cc(=O)oc2c(C(CCN3CCCCC3)c3ccc4c(c3)OCO4)c(OC)cc(OC)c12` (centres unmarked), the “hERG current change (%, negative = inhibition) at 10uM” value was -54.3%. With `CSCC[C@H](NC(=O)OC(C)(C)C)c1nnc(SCC(=O)N(C)C)o1` the figure was 9%; with `O=C(Nc1ccc(Cl)c(S(=O)(=O)N2CCCCC2)c1)c1cnccn1`, -42.6%; with `O=S(=O)(Nc1nc2c(s1)CCCC2)c1ccc2ccccc2c1`, 7.46%.

`Cc1cccc(-c2ncc(CN3CCN(CCC(C)C)C(CCO)C3)cn2)c1` (centres unmarked): the “hERG current change (%, negative = inhibition) at 10uM” value was -45%. Consider `COc1ccnc(N=CNOCc2cccc(C(F)(F)F)c2)c1C#N`, for which the “hERG current change (%, negative = inhibition) at 10uM” value is listed as 17.2%. With `Cc1ccc(/C=N/NC(=O)c2nnn(-c3nonc3N)c2CN(C)C)o1` the figure was -7.52%; with `O=C(Cc1ccccc1)NCCS(=O)(=O)N1CCN(c2cccc(Cl)c2)CC1`, -82.8%; with `COc1cc(CNCc2cccnc2)ccc1OCC(=O)NC(C)(C)C.Cl`, 19.4%. The value for `Cc1[nH]ccc(=O)c1OCc1ccc(Cl)cc1` was -3.48%; that for `COc1cc(OC)cc(C(=O)NCC(=O)OCc2csc(-c3ccccc3)n2)c1` was 11%; that for `COc1ccc(OC)c(S(=O)(=O)Nc2ccc3[nH]c(=O)[nH]c3c2)c1` was 11.3%.

Regarding `CC1(C)CC2CC(C)(CN2C(=O)COC(=O)Cn2[nH]c(=O)c3ccccc3c2=O)C1` (centres unmarked), the “hERG current change (%, negative = inhibition) at 10uM” value worked out at 2.26%. With `CCCCC(=O)N1CCCC(c2nc3c(nnn3Cc3cc(C)ccc3C)c(=O)[nH]2)C1` (centres unmarked) the figure was -52.2%. With `CC(C)Oc1cccc(C(=O)C2CCCN(S(C)(=O)=O)C2)c1` (centres unmarked) the figure was 12.7%; with `O=C(O)c1cccc(NC(=S)N/N=C/c2ccccc2OCc2ccc(Br)cc2)c1`, 9.12%; with `COC(=O)CCc1cccc(CCC(=O)OC)c1`, 3.19%. As to `COc1cc(C2C(C#N)=C(N)Oc3n[nH]c(-c4ccccn4)c32)cc(OC)c1OC` (centres unmarked), the “hERG current change (%, negative = inhibition) at 10uM” value is listed as 7.34%.

With `COc1ccc(-c2cc(-c3ccccc3)no2)cc1`, the “hERG current change (%, negative = inhibition) at 10uM” value is 9.77%. The value for `COc1ccc(S(=O)(=O)N2CCC(C(=O)NCc3ccco3)CC2)cc1` was -25.4%; that for `Cc1ccc2cccc(SCC(=O)NCC#N)c2n1` was 11.4%. With `CCOc1ccccc1NC(=O)C(OC(=O)C1CC1)c1ccccc1` (centres unmarked) the figure was -10.3%; with `Cc1c(/C=C(\C#N)c2nn(-c3ccccc3)c(N)c2C#N)c2ccccc2n1Cc1ccc(F)cc1`, 4.69%; with `CCOC(=O)CN1C(=O)C(O)=C(C(C)=O)C1c1ccc(F)cc1` (centres unmarked), 12.2%. With `Cc1cc(C(=O)Nc2c(C)n(C)n(-c3ccccc3)c2=O)c(C)o1` the figure was 20.1%.

Take `O=c1[nH]c(O)c(C=Nc2ccccc2Oc2ccccc2)c(=O)[nH]1`: the “hERG current change (%, negative = inhibition) at 10uM” value is on record as 15.9%. The value for `O=C(NC1CCCCCCC1)c1cc([N+](=O)[O-])ccc1Cl` was 1.32%; that for `CSCC[C@H](NC(=O)c1cccc([N+](=O)[O-])c1C)c1nc2ccccc2[nH]1` was -11.6%.
